Laboratory results taken from PubChem BioAssay AID1768 (National Center for Advancing Translational Sciences (NCATS), 2009).
Hit rate of the full screen: of about 270,000 compounds, about 620 (0.23%) were called active. The shares of active, inactive and inconclusive entries below differ from those in the screen. Calls come from the whole dose curve; as a rule, active = well fitted inhibition curve with a large enough effect in the polarisation, with a control signal flat (not every such curve was filed as active); inconclusive = small, poorly fitted or top-dose-only effect, or effect the other way, or a change in a side signal; inactive = no such curve, though single readings can be large or run the other way; the % refers to the polarisation. Potencies beside an inconclusive call are fits to weak or partial responses and may not hold up. A note “side channel” means that the fit belongs to a control or component signal, not to the main read-out.

Target: Menin (Homo sapiens) (UniProt O00255)
UniProt O00255, sequence (O00255 whole entry, looked up): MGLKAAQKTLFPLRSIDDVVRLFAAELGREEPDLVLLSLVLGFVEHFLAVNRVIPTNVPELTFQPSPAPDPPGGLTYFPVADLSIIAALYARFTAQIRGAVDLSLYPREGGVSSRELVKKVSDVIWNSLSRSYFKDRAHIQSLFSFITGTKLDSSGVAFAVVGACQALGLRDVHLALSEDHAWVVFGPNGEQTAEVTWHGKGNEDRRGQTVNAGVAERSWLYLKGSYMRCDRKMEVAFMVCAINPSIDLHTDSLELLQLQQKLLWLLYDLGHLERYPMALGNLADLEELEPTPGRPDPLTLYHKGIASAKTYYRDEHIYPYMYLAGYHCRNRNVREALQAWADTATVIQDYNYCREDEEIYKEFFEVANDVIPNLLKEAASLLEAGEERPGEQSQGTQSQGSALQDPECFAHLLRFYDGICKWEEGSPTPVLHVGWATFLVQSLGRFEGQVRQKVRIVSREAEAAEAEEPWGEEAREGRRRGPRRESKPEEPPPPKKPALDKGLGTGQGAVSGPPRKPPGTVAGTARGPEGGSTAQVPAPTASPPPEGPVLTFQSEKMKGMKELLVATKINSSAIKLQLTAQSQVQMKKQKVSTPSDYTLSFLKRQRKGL
Assay: qHTS Assay for Inhibitors Targeting the Menin-MLL Interaction in MLL Related Leukemias: Competition With Texas Red Labeled MLL-derived Mutant Peptide; for FP activity change, negative = inhibition: % of control where 0% means no effect
Details: fluorescence polarization; FP activity change, negative = inhibition: at 61.6 µM (top of the series)
Potency is the fitted concentration of half-maximal effect; tags give direction and shape of the fitted curve or compound fluorescence and quenching.

Q: `Cc1cccc(NC(=S)N/N=C/c2c[nH]c3ccccc23)c1` was tested. Which Potency did it give?
A: inconclusive: 28.2 µM [quencher, side channel, partial curve]

Q: How did the FP activity change, negative = inhibition turn out when `C/C(CCN1CCCc2nc(C)c(C)cc21)=N\O[C@@H](C)c1cc(-c2c(C)cc(C)cc2C)no1` was run?
A: inactive: -12.4% [at 11.7 µM]

Q: `O=C(Cc1ccc(Cl)cc1)Nc1ccc(Br)cc1` was tested. Which Potency did it give?
A: inconclusive: 7.08 µM [quencher, side channel, partial curve]

Q: How did the Potency turn out when `CCCCCCCCCCCCCCCCn1cc[n+](CC(C)=O)c1` was run?
A: inconclusive: 22.4 µM [inhibitor, partial curve]

Q: `O=C(NCCc1ccccc1)C(c1cccs1)N(C(=O)CCl)c1ccc(Cl)cc1` (stereo not given) was tested. Which Potency did it give?
A: inconclusive: 17.8 µM [fluorescent, side channel, single point]

Q: How did the Potency turn out when `O=C(Nc1cccnc1)c1c(F)c(F)c(F)c(F)c1F` was run?
A: inconclusive: 39.8 µM [inhibitor, single point]

Q: With `O=C(CN1C(=O)CCSc2ccc(S(=O)(=O)N3CCOCC3)cc21)Nc1cccc(F)c1` as the compound, how does the Potency read?
A: inconclusive: 11.2 µM [quencher, side channel, partial curve]

Q: With `CCOC(=O)c1cnc2ccc(C)cc2c1NCCN1CCOCC1` as the compound, how does the Potency read?
A: inconclusive: 35.5 µM [inhibitor, single point]

Q: With `CCCCCc1c(C)nc(NCc2ccccc2)[nH]c1=O` as the compound, how does the Potency read?
A: inconclusive: 3.55 µM [fluorescent, side channel, partial curve]

Q: Which Potency does the source give for `COc1ccc(-c2nnc(NC(=O)c3ccc(S(=O)(=O)N4CCc5ccccc5C4)cc3)o2)cc1` here?
A: inconclusive: 4.47 µM [quencher, side channel, partial curve]

Q: Which Potency does the source give for `COc1ccc(NC(=S)N2CCN(Cc3ccccc3)CC2)c(OC)c1` here?
A: inconclusive: 8.91 µM [inhibitor, single point]

Q: How did the Potency turn out when `O=C(CCNc1ccc(Br)cc1)c1cccc([N+](=O)[O-])c1` was run?
A: inconclusive: 28.2 µM [quencher, side channel, partial curve]

Q: `O=C(Nc1nc(-c2ccc(F)c(F)c2)cs1)Nc1ccc(F)cc1F` was tested. Which Potency did it give?
A: inconclusive: 39.8 µM [inhibitor, single point]

Q: How did the Potency turn out when `CCOC(=O)C1CCCN(C(=O)CN2C(=O)c3ccccc3C2=O)C1` (stereo not given) was run?
A: inconclusive: 25.1 µM [inhibitor, single point]

Q: For `CCc1ccc(-n2nc3cc(C)c(N)cc3n2)cc1`, which Potency is on record?
A: inconclusive: 12.6 µM [quencher, side channel, partial curve]

Q: With `O=C(Cc1cccs1)Nc1nc2c(ccc3ccccc32)s1` as the compound, how does the Potency read?
A: inconclusive: 39.8 µM [quencher, side channel, single point]

Q: How did the Potency turn out when `Cc1ccc(S(=O)(=O)CCC(=O)Nc2nc(-c3cccnc3)cs2)cc1` was run?
A: inconclusive: 39.8 µM [fluorescent, side channel, single point]

Q: With `CC1CCN(S(=O)(=O)c2ccc(C(=O)Nc3nnc(C4CC4)o3)cc2)CC1` as the compound, how does the Potency read?
A: inconclusive: 14.1 µM [quencher, side channel, partial curve]

Q: Which Potency does the source give for `CCOc1ccccc1/C=C\c1nc(O)c([N+](=O)[O-])c(=O)[nH]1` here?
A: inconclusive: 11.2 µM [quencher, side channel, partial curve]

Q: `CCN(Cc1ccncc1)C(=O)c1cc(COc2c(C)cccc2C)on1` was tested. Which Potency did it give?
A: inconclusive: 25.1 µM [fluorescent, side channel, partial curve]

Q: Which Potency does the source give for `N#CC1=C(N)Nc2nc3ccccc3n2C1c1ccc(Cl)cc1` (stereo not given) here?
A: inconclusive: 39.8 µM [inhibitor, single point]

Q: For `Cc1ccccc1CN1C[C@@H]2C[C@@H](c3cn(C)nc3-c3ccccc3)N3CCC[C@@]23C1=O`, which Potency is on record?
A: inconclusive: 10 µM [fluorescent, side channel, full curve, poor fit]

Q: With `COc1ccc(/C=N/Nc2nonc2N)cc1OC` as the compound, how does the Potency read?
A: inconclusive: 28.2 µM [quencher, side channel, single point]

Q: With `CCOC(=O)c1nn(-c2ccc(F)cc2)c(=O)c2c(N)scc12` as the compound, how does the Potency read?
A: inconclusive: 0.708 µM [fluorescent, side channel, full curve]

Q: For `COc1ccc(CCN(C)CCC(=O)Nc2cc(C)ccc2C)cc1OC`, which Potency is on record?
A: inconclusive: 39.8 µM [fluorescent, side channel, partial curve]

Q: `O=C(CC(=O)N/N=C\c1ccc([N+](=O)[O-])cc1)NCCc1ccccc1` was tested. Which Potency did it give?
A: inconclusive: 25.1 µM [quencher, side channel, single point]

Q: `COc1ccccc1NC(=O)N(CCN1CCOCC1)Cc1cc2cc(C)cc(C)c2[nH]c1=O` was tested. Which Potency did it give?
A: inconclusive: 0.708 µM [inhibitor, full curve, poor fit]

Q: For `NC(=O)Cn1c(O)c(N=NC(=O)CNC(=O)/C=C/c2ccccc2)c2ccccc21`, which Potency is on record?
A: inconclusive: 25.1 µM [inhibitor, single point]

Q: With `CCc1ccc(N=C2NC(=O)/C(=C/c3cc(OC)c(OC)c(OC)c3)S2)cc1` as the compound, how does the Potency read?
A: inconclusive: 39.8 µM [inhibitor, single point]

Q: For `Cc1cc(Cl)ccc1OCC(=O)Nn1c(C)ccc1C`, which Potency is on record?
A: inconclusive: 39.8 µM [quencher, single point]

Q: Which Potency does the source give for `O=C(CSc1nnc(-c2cccnc2)s1)Nc1ccccc1` here?
A: inconclusive: 28.2 µM [fluorescent, side channel, partial curve]

Q: For `Oc1oc(-c2ccccc2)nc1C=Nc1ccccc1`, which Potency is on record?
A: inconclusive: 17.8 µM [quencher, side channel, single point]

Q: With `Cc1[nH]c2ccccc2c1C(=O)COC(=O)c1cccc(S(=O)(=O)N2CCCCC2)c1` as the compound, how does the Potency read?
A: inconclusive: 7.08 µM [quencher, side channel, single point]

Q: With `O=S(=O)(Nc1cc(O)cc2cccnc12)c1ccc(Cl)s1` as the compound, how does the Potency read?
A: inconclusive: 15.8 µM [quencher, side channel, partial curve]

Q: Which Potency does the source give for `O=C(CSc1nc2cc(Cl)ccc2s1)c1cc2ccccc2o1` here?
A: inconclusive: 22.4 µM [quencher, side channel, partial curve]
